“And” between values parts separate entries of the source, which are not always exact repeats. Identical values can stand only once. Part of at least one peptide drawing is inferred or uncertain, most often the ends. For at least one compound, name, drawing or mass did not settle the structure. Non-standard residues stand in square brackets, D forms with d. Residues, ends and D or L forms follow the SMILES beside them. No end group written: not given here. hArg = N=C(N)NCCCC[C@H](N)C(=O)O; NMeK = CN[C@@H](CCCCN)C(=O)O; Phg = N[C@H](C(=O)O)c1ccccc1
Molecular target: Nat1 (LTIITLE (SEQ ID NO: 225)) (Homo sapiens, UniProt P04637)
Assay: Thioflavin T aggregation assay (Nat1)
Type: biochemical
Conditions: ThT fluorescence, 50 μM Nat1, pH6.0, room temperature, 2 hours
Description: The peptides of the invention were tested in an in vitro Thiofiavin T aggregation assay [see WO2014/182961]. An increase in Thioflavin T fluorescence is detected over time due to the formation of increasing amounts of amyloid to which the dye can specifically bind. […] For the Nat1 Stock Solution, Nat (LTIITLE (SEQ ID NO: 225), >95% Pure, TFA salt) is dissolved at 8 mM in 25 mM NaOH solution and kept at −80° C. Prior to the assay, it is diluted to 1 mM in H2O. The 2× Reaction Buffer is prepared with 200 mM Sodium Phosphate, pH6.0, 500 mM Sodium Chloride and 200 μM Thioflavin T (ThT). 100 μL of 2× reaction buffer and 80 μL of H2O are added to each well in black, clear-bottomed 96-well plate. Inhibitor peptides are dissolved in H2O to appropriate concentrations to produce 6-points dose response curves. 10 μL of dissolved peptide or H2O (control) is added to each reaction well. 10 μL of 1 mM Nat1 peptide is added to each reaction well (a final concentration of 50 μM). ThT fluorescence is monitored at room temperature every minute for 2 hours with excitation and emission wavelengths of 440 and 485 nm, respectively. IC50 values are calculated using Graphpad Prism.

LYIRTWH [LYIRTWH] was tested, and the IC50 was 302 nM.

LTIRTWH [LTIRTWH] showed an IC50 of 295 nM.

TRIYRYK [TRIYRYK] gave an IC50 of 213 nM.

LRIRHVK [LRIRHVK] gave an IC50 of 246 nM.

With LYIRYTH [LYIRYTH] the IC50 was 180 nM.

In the case of N=C(N)NCCC[C@@H](NC(=O)[C@@H](Cc1c[nH]cn1)NC(=O)[C@@H](CCCCN)NC(=O)[C@@H](Cc1c[nH]cn1)NC(=O)[C@@H](CCCNC(=N)N)NC(=O)[C@@H](Cc1c[nH]c2ccccc12)NC(=O)[C@H](N)Cc1ccccc1)C(=O)O [fwrhkhr] (H-[dF][dW][dR][dH][dK][dH][dR]-OH; N-terminus and C-terminus assumed), the IC50 is reported as 161 nM and 264 nM.

For RLYIRLS [RLYIRLS], the IC50 was 284 nM.

N=C(N)NCCC[C@@H](NC(=O)[C@@H](Cc1c[nH]cn1)NC(=O)[C@@H](CCCNC(=N)N)NC(=O)[C@@H](Cc1ccccc1)NC(=O)[C@@H](Cc1c[nH]c2ccccc12)NC(=O)[C@@H](Cc1c[nH]c2ccccc12)NC(=O)[C@H](N)CO)C(=O)O [swwfrhr] (H-[dS][dW][dW][dF][dR][dH][dR]-OH; N-terminus and C-terminus assumed) was tested, and the IC50 was 187 nM.

C[C@@H](NC(=O)[C@@H](CCCNC(=N)N)NC(=O)[C@@H](Cc1c[nH]cn1)NC(=O)[C@@H](Cc1c[nH]c2ccccc12)NC(=O)[C@@H](CCCNC(=N)N)NC(=O)[C@@H](Cc1c[nH]c2ccccc12)NC(=O)[C@H](N)Cc1ccccc1)C(=O)O [fwrwhra] (H-[dF][dW][dR][dW][dH][dR][dA]-OH; N-terminus and C-terminus assumed) was tested, and the IC50 was 228 nM.

Compound LTIRTLH [LTIRTLH] has an IC50 of 537 nM.

With LSIRQH [LSIRQH] the IC50 was 945 nM.

In the case of IAIRRYR [IAIRRYR], the IC50 is reported as 74 nM.

CC[C@@H](C)[C@@H](N)C(=O)N[C@H](CC(C)C)C(=O)N[C@H](CCCCN)C(=O)N[C@H](Cc1c[nH]c2ccccc12)C(=O)N[C@H](CC(C)C)C(=O)N[C@H](Cc1c[nH]c2ccccc12)C(=O)O [ilkwlw] (H-[dI][dL][dK][dW][dL][dW]-OH; N-terminus and C-terminus assumed) showed an IC50 of 1340 nM.

N=C(N)NCCC[C@@H](NC(=O)[C@@H](Cc1c[nH]cn1)NC(=O)[C@@H](CCCNC(=N)N)NC(=O)[C@@H](Cc1c[nH]c2ccccc12)NC(=O)[C@@H](CCCNC(=N)N)NC(=O)[C@@H](Cc1c[nH]c2ccccc12)NC(=O)[C@H](N)CCC(N)=O)C(=O)O [qwrwrhr] (H-[dQ][dW][dR][dW][dR][dH][dR]-OH; N-terminus and C-terminus assumed) showed an IC50 of 3140 nM.

IRIRRWR [IRIRRWR] gave an IC50 of 76 nM.

N=C(N)NCCC[C@@H](NC(=O)[C@@H](Cc1c[nH]cn1)NC(=O)[C@@H](Cc1c[nH]cn1)NC(=O)[C@@H](Cc1c[nH]c2ccccc12)NC(=O)[C@@H](CCCNC(=N)N)NC(=O)[C@@H](Cc1c[nH]c2ccccc12)NC(=O)[C@H](N)CO)C(=O)O [swrwhhr] (H-[dS][dW][dR][dW][dH][dH][dR]-OH; N-terminus and C-terminus assumed) was tested, and the IC50 was 301 nM.

CC(C)C[C@@H](NC(=O)[C@H](N)CCCCN)C(=O)N[C@H](CCCCN)C(=O)N[C@H](Cc1c[nH]c2ccccc12)C(=O)N[C@H](CCC(N)=O)C(=O)N[C@H](Cc1c[nH]c2ccccc12)C(=O)O [klkwqw] (H-[dK][dL][dK][dW][dQ][dW]-OH; N-terminus and C-terminus assumed) showed an IC50 of 7310 nM.

IRFRRYR [IRFRRYR] gave an IC50 of 496 nM.

LRIRYWK [LRIRYWK] was tested, and the IC50 was 36 nM.

Compound YYIRTYH [YYIRTYH] has an IC50 of 1600 nM.

WYIRTYH [WYIRTYH] gave an IC50 of 287 nM.

In the case of CC[C@H](C)[C@H](NC(=O)[C@H](CCCNC(=N)N)NC(=O)[C@@H](N)CC(C)C)C(=O)N(C)[C@@H](CCCCN)C(=O)N[C@@H](Cc1ccc(O)cc1)C(=O)N[C@@H](Cc1c[nH]cn1)C(=O)N[C@@H](CCCNC(=N)N)C(=O)O [LRI(N-Me)KYHR] (H-LRI[NMeK]YHR-OH; N-terminus and C-terminus assumed), the IC50 is reported as 125 nM.

N=C(N)NCCC[C@@H](N)C(=O)N[C@H](CCC(N)=O)C(=O)N[C@H](Cc1c[nH]cn1)C(=O)N[C@H](Cc1ccc(O)cc1)C(=O)N[C@H](CCCNC(=N)N)C(=O)N[C@H](Cc1c[nH]c2ccccc12)C(=O)N[C@H](CCCNC(=N)N)C(=O)O [rqhyrwr] (H-[dR][dQ][dH][dY][dR][dW][dR]-OH; N-terminus and C-terminus assumed) gave an IC50 of 210 nM.

For CC[C@H](C)[C@H](N)C(=O)N[C@@H](CCCNC(=N)N)C(=O)N[C@H](C(=O)N[C@@H](CCCCNC(=N)N)C(=O)N[C@@H](CCCNC(=N)N)C(=O)N[C@@H](Cc1ccc(O)cc1)C(=O)N[C@@H](CCCNC(=N)N)C(=O)O)[C@@H](C)CC [Ile-Arg-Ile-homoArg-Arg-Tyr-Arg] (H-IRI[hArg]RYR-OH; N-terminus and C-terminus assumed), the IC50 was 40 nM.

N=C(N)NCCC[C@@H](NC(=O)[C@@H](Cc1c[nH]cn1)NC(=O)[C@@H](CCCNC(=N)N)NC(=O)[C@@H](CCCNC(=N)N)NC(=O)[C@@H](Cc1c[nH]c2ccccc12)NC(=O)[C@@H](Cc1c[nH]cn1)NC(=O)[C@H](N)CO)C(=O)O [shwrrhr] (H-[dS][dH][dW][dR][dR][dH][dR]-OH; N-terminus and C-terminus assumed) gave an IC50 of 338 nM.

With LAIKYHR [LAIKYHR] the IC50 was 220 nM.

Compound CC[C@H](C)[C@H](N)C(=O)N[C@@H](CCCNC(=N)N)C(=O)N[C@H](C(=O)N[C@@H](CCCNC(=N)N)C(=O)N[C@@H](CCCNC(=N)N)C(=O)N[C@@H](Cc1ccc(O)cc1)C(=O)N[C@@H](CCCNC(=N)N)C(=O)O)c1ccccc1 [Ile-Arg-Phg-Arg-Arg-Tyr-Arg] (H-IR[Phg]RRYR-OH; N-terminus and C-terminus assumed) has an IC50 of 124 nM.

IRIRRAR [IRIRRAR] gave an IC50 of 37 nM.

In the case of N=C(N)NCCC[C@@H](N)C(=O)N[C@H](Cc1ccccc1)C(=O)N[C@H](Cc1c[nH]cn1)C(=O)N[C@H](Cc1ccc(O)cc1)C(=O)N[C@H](Cc1ccccc1)C(=O)N[C@H](CCCNC(=N)N)C(=O)N[C@H](CCCCN)C(=O)O [rfhyfrk] (H-[dR][dF][dH][dY][dF][dR][dK]-OH; N-terminus and C-terminus assumed), the IC50 is reported as 51 nM.

In the case of CC[C@@H](C)[C@@H](NC(=O)[C@H](N)CCCNC(=N)N)C(=O)N[C@H](Cc1c[nH]cn1)C(=O)N[C@H](Cc1ccc(O)cc1)C(=O)N[C@H](Cc1ccccc1)C(=O)N[C@H](CCCNC(=N)N)C(=O)N[C@H](CCCNC(=N)N)C(=O)O [rihyfrr] (H-[dR][dI][dH][dY][dF][dR][dR]-OH; N-terminus and C-terminus assumed), the IC50 is reported as 43 nM.

With CC[C@@H](C)[C@@H](NC(=O)[C@@H](CCCNC(=N)N)NC(=O)[C@@H](Cc1c[nH]c2ccccc12)NC(=O)[C@H](N)CCCNC(=N)N)C(=O)N[C@H](CC(C)C)C(=O)N[C@H](CCC(N)=O)C(=O)N[C@H](CCCCN)C(=O)O [rwrilqk] (H-[dR][dW][dR][dI][dL][dQ][dK]-OH; N-terminus and C-terminus assumed) the IC50 was 199 nM.

LTIRLTH [LTIRLTH] gave an IC50 of 329 nM.

N=C(N)NCCC[C@@H](N)C(=O)N[C@H](CCC(N)=O)C(=O)N[C@H](Cc1c[nH]c2ccccc12)C(=O)N[C@H](Cc1ccc(O)cc1)C(=O)N[C@H](Cc1c[nH]cn1)C(=O)N[C@H](Cc1c[nH]c2ccccc12)C(=O)N[C@H](CCCNC(=N)N)C(=O)O [rqwyhwr] (H-[dR][dQ][dW][dY][dH][dW][dR]-OH; N-terminus and C-terminus assumed) showed an IC50 of 132 nM.

In the case of YRLRYLR [YRLRYLR], the IC50 is reported as 99 nM.

Work on LYIKYHR [LYIKYHR] yielded an IC50 of 148 nM.

IYIYHQR [IYIYHQR] showed an IC50 of 269 nM.

TYIRYLR [TYIRYLR] showed an IC50 of 412 nM.

N=C(N)NCCC[C@@H](NC(=O)[C@@H](CCCNC(=N)N)NC(=O)[C@@H](CCCCN)NC(=O)[C@@H](Cc1ccc(O)cc1)NC(=O)[C@@H](Cc1c[nH]c2ccccc12)NC(=O)[C@@H](Cc1ccccc1)NC(=O)[C@H](N)CO)C(=O)O [sfwykrr] (H-[dS][dF][dW][dY][dK][dR][dR]-OH; N-terminus and C-terminus assumed) gave an IC50 of 116 nM.

Work on IHIEIK [IHIEIK] yielded an IC50 of 723 nM.

For FFRLYLR [FFRLYLR], the IC50 was 13400 nM.

IRIYRYK [IRIYRYK] showed an IC50 of 60 nM.

In the case of YTIQLWH [YTIQLWH], the IC50 is reported as 46000 nM.

WTRIYLH [WTRIYLH] was tested, and the IC50 was 240 nM.

IRARRYR [IRARRYR] showed an IC50 of 1250 nM.

With CC[C@H](C)[C@H](N)C(=O)N[C@@H](CCCCNC(=N)N)C(=O)N[C@H](C(=O)N[C@@H](CCCCNC(=N)N)C(=O)N[C@@H](CCCNC(=N)N)C(=O)N[C@@H](Cc1c[nH]c2ccccc12)C(=O)N[C@@H](CCCNC(=N)N)C(=O)O)[C@@H](C)CC [Ile-homoArg-Ile-homoArg-Arg-Trp-Arg] (H-I[hArg]I[hArg]RWR-OH; N-terminus and C-terminus assumed) the IC50 was 49 nM.

WTRILWH [WTRILWH] showed an IC50 of 398 nM.

In the case of N=C(N)NCCC[C@H](NC(=O)[C@H](Cc1ccc(O)cc1)NC(=O)[C@H](CCCNC(=N)N)NC(=O)[C@H](CCCNC(=N)N)NC(=O)[C@@H](NC(=O)[C@H](CCCNC(=N)N)NC(=O)[C@@H](N)c1ccccc1)c1ccccc1)C(=O)O [Phg-Arg-Phg-Arg-Arg-Tyr-Arg] (H-[Phg]R[Phg]RRYR-OH; N-terminus and C-terminus assumed), the IC50 is reported as 5950 nM.

LWIKYHR [LWIKYHR] was tested, and the IC50 was 76 nM.
